Results published in patent publication US20240261263A1, “COMPOUNDS AND METHODS TO SENSITIZE CANCER CELLS TO TYROSINE KINASE INHIBITORS” (Da Zen Theranostics, Inc., priority 2016, published 2024).

Assays:
[1] = test system: A549/DDP (Cisplatin Resistant); assay: Crystal Violet cell proliferation assay, A549/DDP
[2] = test system: A549 parental; assay: Crystal Violet cell proliferation assay, A549
[3] = test system: 95D (Met); assay: Crystal Violet cell proliferation assay, 95D; type: cell-based, human; details: single agent, 72 h, mean ± SEM
[4] = test system: 95C (Non-Met); assay: Crystal Violet cell proliferation assay, 95C; type: cell-based, human; details: single agent, 72 h, mean ± SEM
[5] = test system: H1650; assay: Crystal Violet cell proliferation assay, H1650; details: H-1650 (data not shown), Gefitinib and Icotinib, RO4929097 10-20 uM
[6] = test system: H1975; assay: Crystal Violet cell proliferation assay, H1975

With DZ1-Cisplatin ester the IC50 ([1]; read-out: IC50 A549/DDP (Cisplatin Resistant), single agent, 72 h, mean ± SEM) was 10.2 ± 1.2 µM, the IC50 ([2]; read-out: IC50 A549 parental, single agent, 72 h, mean ± SEM) was 1.8 ± 1 µM and the IC50 [3] was 13.7 ± 1.3 µM. It also gave an IC50 [4] of 2.4 ± 1.1 µM.
In the case of CC(C)(C(=O)NCC(F)(F)C(F)(F)F)C(=O)N[C@@H]1C(=O)Nc2ccccc2-c2ccccc21 [RO4929097], the “Sensitization of cells to TKI by RO4929097” value (“Sensitization of cells to TKI” for short) ([1]; A549/DDP, Gefitinib and Icotinib, RO4929097 10-20 uM) is reported as “did not respond consistently”, the “Sensitization of cells to TKI” value ([2]; A549 treated with Gefitinib, RO4929097 10-20 uM) is reported as “responded after successful sensitization” and the “Sensitization of cells to TKI” value [5] is reported as “did not respond consistently”. For the same compound, the “Sensitization of cells to TKI” value ([6]; H-1975, Gefitinib and Icotinib, RO4929097 10-20 uM) was “did not respond consistently”.
With COc1cc2ncnc(Nc3ccc(F)c(Cl)c3)c2cc1OCCCN1CCOCC1 [Gefitinib] the “Gefitinib concentration giving excellent TKI effects (crystal violet assay)” value ([6]; Example 4 lung carcinoma cell line, with the sensitizer DZ1-SIM amide at about 5 uM) was “about 0.5 uM”.
